# From the supplement of paper PMC8728848
# The list shows a part of the results.
# B1: UEA-I (Ulex europaeus), P22972 (protein)
# chain: SDDLSFKFKNFSQNGKDLSFQGDASVIETGVLQLNKVGNNLPDETGGIARYIAPIHIWNCNTGEVASFITSFSFFMETSANPKAATDGLTFFLAPPDSPLRRAGGYFGLFEDTKDNDSSYQTVAVEFDTIGSPVNFDDPGFPHIGIDVNRVKSINAERWNKRYGLNNVANVEIIYEASSKTLTASLTYPSDQTSISVTSIVDLKEILPEWVSVGFSGGTYIGRQATHEVLNWYFTSNLINTNS
# Tests used:
# Experiment in all cases: glycan array binding signal (z-score within array); higher = stronger binding
# Settings in all cases: glycan notation: IUPAC condensed, linker removed
# [1] = target: Neu5Ac(a2-3)[GalNAc(b1-4)]Gal(b1-4)Glc
# Method in brief: (§1)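 The binding signal is a Z-score computed within each array and averaged over linkers. Arrays of the same protein sequence at different concentrations or buffers were also averaged together. Data originate from 3228 arrays in the Consortium for Functional Glycomics database, kept only where the protein sequence was available.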
# [2] = target: Neu5Ac(a2-3)[GalNAc(b1-4)]Gal(b1-4)GlcNAc
# Method in brief: as §1
# [3] = target: Neu5Ac(a2-3)[GalNAc(b1-4)]Gal(b1-4)GlcNAc(b1-3)GalNAc
# Method in brief: as §1
# [4] = target: Neu5Ac(a2-3)[Neu5Ac(a2-6)]GalNAc
# Method in brief: as §1
# Neu5Ac(a2-6)Gal = target: Neu5Ac(a2-6)Gal
# Method in brief: as §1
# [5] = target: Neu5Ac(a2-6)Gal(b1-3)GlcNAc(b1-3)[Gal(b1-4)GlcNAc(b1-6)]Gal(b1-4)Glc
# Method in brief: as §1
# Neu5Ac(a2-6)Gal(b1-4)Glc = target: Neu5Ac(a2-6)Gal(b1-4)Glc
# Method in brief: as §1
# [6] = target: Neu5Ac(a2-6)Gal(b1-4)GlcNAc
# Method in brief: as §1
# [7] = target: Neu5Ac(a2-6)Gal(b1-4)GlcNAc(b1-2)Man
# Method in brief: as §1
# [8] = target: Neu5Ac(a2-6)Gal(b1-4)GlcNAc(b1-2)Man(a1-3)Man(b1-4)GlcNAc(b1-4)GlcNAc
# Method in brief: as §1
# [9] = target: Neu5Ac(a2-6)Gal(b1-4)GlcNAc(b1-2)Man(a1-3)[Gal(b1-4)GlcNAc(b1-2)Man(a1-6)]Man(b1-4)GlcNAc(b1-4)GlcNAc
# Method in brief: as §1
# [10] = target: Neu5Ac(a2-6)Gal(b1-4)GlcNAc(b1-2)Man(a1-3)[GlcNAc(b1-2)Man(a1-6)]Man(b1-4)GlcNAc(b1-4)GlcNAc
# Method in brief: as §1
# [11] = target: Neu5Ac(a2-6)Gal(b1-4)GlcNAc(b1-2)Man(a1-3)[GlcNAc(b1-4)][Neu5Ac(a2-6)Gal(b1-4)GlcNAc(b1-2)Man(a1-6)]Man(b1-4)GlcNAc(b1-4)GlcNAc
# Method in brief: as §1
# [12] = target: Neu5Ac(a2-6)Gal(b1-4)GlcNAc(b1-2)Man(a1-3)[Man(a1-6)]Man(b1-4)GlcNAc(b1-4)GlcNAc
# Method in brief: as §1
# [13] = target: Neu5Ac(a2-6)Gal(b1-4)GlcNAc(b1-2)Man(a1-3)[Neu5Ac(a2-3)Gal(b1-4)GlcNAc(b1-2)Man(a1-6)]Man(b1-4)GlcNAc(b1-4)GlcNAc
# Method in brief: as §1
# [14] = target: Neu5Ac(a2-6)Gal(b1-4)GlcNAc(b1-2)Man(a1-3)[Neu5Ac(a2-6)Gal(b1-4)GlcNAc(b1-2)Man(a1-6)]Man(b1-4)GlcNAc(b1-4)GlcNAc
# Method in brief: as §1
# [15] = target: Neu5Ac(a2-6)Gal(b1-4)GlcNAc(b1-2)Man(a1-3)[Neu5Ac(a2-6)Gal(b1-4)GlcNAc(b1-2)Man(a1-6)]Man(b1-4)GlcNAc(b1-4)[Fuc(a1-6)]GlcNAc
# Method in brief: as §1
# [16] = target: Neu5Ac(a2-6)Gal(b1-4)GlcNAc(b1-2)Man(a1-6)Man(b1-4)GlcNAc(b1-4)GlcNAc
# Method in brief: as §1
# [17] = target: Neu5Ac(a2-6)Gal(b1-4)GlcNAc(b1-2)Man(a1-6)[Gal(b1-4)GlcNAc(b1-2)Man(a1-3)]Man(b1-4)GlcNAc(b1-4)GlcNAc
# Method in brief: as §1
# [18] = target: Neu5Ac(a2-6)Gal(b1-4)GlcNAc(b1-2)Man(a1-6)[GlcNAc(b1-2)Man(a1-3)]Man(b1-4)GlcNAc(b1-4)GlcNAc
# Method in brief: as §1
# [19] = target: Neu5Ac(a2-6)Gal(b1-4)GlcNAc(b1-2)Man(a1-6)[Man(a1-3)]Man(b1-4)GlcNAc(b1-4)GlcNAc
# Method in brief: as §1
# [20] = target: Neu5Ac(a2-6)Gal(b1-4)GlcNAc(b1-2)[Neu5Ac(a2-6)Gal(b1-4)GlcNAc(b1-4)]Man(a1-3)[GlcNAc(b1-4)][Neu5Ac(a2-6)Gal(b1-4)GlcNAc(b1-2)[Neu5Ac(a2-6)Gal(b1-4)GlcNAc(b1-6)]Man(a1-6)]Man(b1-4)GlcNAc(b1-4)GlcNAc
# Method in brief: as §1
# [21] = target: Neu5Ac(a2-6)Gal(b1-4)GlcNAc(b1-2)[Neu5Ac(a2-6)Gal(b1-4)GlcNAc(b1-4)]Man(a1-3)[GlcNAc(b1-4)][Neu5Ac(a2-6)Gal(b1-4)GlcNAc(b1-4)Man(a1-6)]Man(b1-4)GlcNAc(b1-4)GlcNAc
# Method in brief: as §1
# [22] = target: Neu5Ac(a2-6)Gal(b1-4)GlcNAc(b1-2)[Neu5Ac(a2-6)Gal(b1-4)GlcNAc(b1-6)]Man(a1-6)[Neu5Ac(a2-6)Gal(b1-4)GlcNAc(b1-2)Man(a1-3)][GlcNAc(b1-4)]Man(b1-4)GlcNAc(b1-4)GlcNAc
# Method in brief: as §1
# [23] = target: Neu5Ac(a2-6)Gal(b1-4)GlcNAc(b1-3)Gal(b1-3)GlcNAc
# Method in brief: as §1
# [24] = target: Neu5Ac(a2-6)Gal(b1-4)GlcNAc(b1-3)Gal(b1-4)GlcNAc
# Method in brief: as §1
# [25] = target: Neu5Ac(a2-6)Gal(b1-4)GlcNAc(b1-3)Gal(b1-4)GlcNAc(b1-2)Man(a1-3)[Neu5Ac(a2-6)Gal(b1-4)GlcNAc(b1-3)Gal(b1-4)GlcNAc(b1-2)Man(a1-6)]GalNAc
# Method in brief: as §1
# [26] = target: Neu5Ac(a2-6)Gal(b1-4)GlcNAc(b1-3)Gal(b1-4)GlcNAc(b1-3)Gal(b1-4)GlcNAc
# Method in brief: as §1
# [27] = target: Neu5Ac(a2-6)Gal(b1-4)GlcNAc(b1-3)Gal(b1-4)GlcNAc(b1-3)Gal(b1-4)GlcNAc(b1-2)Man(a1-3)[Neu5Ac(a2-6)Gal(b1-4)GlcNAc(b1-3)Gal(b1-4)GlcNAc(b1-3)Gal(b1-4)GlcNAc(b1-2)Man(a1-6)]GalNAc
# Method in brief: as §1
# [28] = target: Neu5Ac(a2-6)Gal(b1-4)GlcNAc(b1-3)Gal(b1-4)GlcNAc(b1-3)GalNAc
# Method in brief: as §1
# [29] = target: Neu5Ac(a2-6)Gal(b1-4)GlcNAc(b1-3)Gal(b1-4)GlcNAc(b1-3)[Neu5Ac(a2-6)Gal(b1-4)GlcNAc(b1-3)Gal(b1-4)GlcNAc(b1-6)]GalNAc
# Method in brief: as §1
# [30] = target: Neu5Ac(a2-6)Gal(b1-4)GlcNAc(b1-3)Gal(b1-4)GlcNAc(b1-6)[Gal(b1-3)]GalNAc
# Method in brief: as §1
# [31] = target: Neu5Ac(a2-6)Gal(b1-4)GlcNAc(b1-3)Gal(b1-4)[Fuc(a1-3)]GlcNAc(b1-3)Gal(b1-4)[Fuc(a1-3)]GlcNAc
# Method in brief: as §1
# [32] = target: Neu5Ac(a2-6)Gal(b1-4)GlcNAc(b1-3)GalNAc
# Method in brief: as §1
# [33] = target: Neu5Ac(a2-6)Gal(b1-4)GlcNAc(b1-3)[Neu5Ac(a2-6)Gal(b1-4)GlcNAc(b1-6)]GalNAc
# Method in brief: as §1
# [34] = target: Neu5Ac(a2-6)Gal(b1-4)GlcNAc(b1-6)GalNAc
# Method in brief: as §1
# [35] = target: Neu5Ac(a2-6)Gal(b1-4)GlcNAc(b1-6)[Gal(b1-3)GlcNAc(b1-3)]Gal(b1-4)Glc
# Method in brief: as §1
# [36] = target: Neu5Ac(a2-6)Gal(b1-4)GlcNAc(b1-6)[Gal(b1-3)]GalNAc
# Method in brief: as §1
binder,measurement,setting,value
B1,glycan array binding signal (z-score),[1],-0.216
same,glycan array binding signal (z-score),[2],-0.194
same,glycan array binding signal (z-score),[3],0.026
same,glycan array binding signal (z-score),[4],-0.245
same,glycan array binding signal (z-score),Neu5Ac(a2-6)Gal,-0.193
same,glycan array binding signal (z-score),[5],-0.117
same,glycan array binding signal (z-score),Neu5Ac(a2-6)Gal(b1-4)Glc,-0.161
same,glycan array binding signal (z-score),[6],-0.206
same,glycan array binding signal (z-score),[7],-0.112
same,glycan array binding signal (z-score),[8],-0.227
same,glycan array binding signal (z-score),[9],-0.197
same,glycan array binding signal (z-score),[10],-0.21
same,glycan array binding signal (z-score),[11],-0.293
same,glycan array binding signal (z-score),[12],-0.216
same,glycan array binding signal (z-score),[13],-0.179
same,glycan array binding signal (z-score),[14],-0.19
same,glycan array binding signal (z-score),[15],-0.167
same,glycan array binding signal (z-score),[16],-0.155
same,glycan array binding signal (z-score),[17],-0.202
same,glycan array binding signal (z-score),[18],-0.19
same,glycan array binding signal (z-score),[19],-0.205
same,glycan array binding signal (z-score),[20],-0.211
same,glycan array binding signal (z-score),[21],-0.236
same,glycan array binding signal (z-score),[22],-0.263
same,glycan array binding signal (z-score),[23],-0.212
same,glycan array binding signal (z-score),[24],-0.229
same,glycan array binding signal (z-score),[25],-0.1
same,glycan array binding signal (z-score),[26],-0.199
same,glycan array binding signal (z-score),[27],0.121
same,glycan array binding signal (z-score),[28],-0.253
same,glycan array binding signal (z-score),[29],1.03
same,glycan array binding signal (z-score),[30],-0.032
same,glycan array binding signal (z-score),[31],-0.17
same,glycan array binding signal (z-score),[32],-0.148
same,glycan array binding signal (z-score),[33],-0.028
same,glycan array binding signal (z-score),[34],-0.14
same,glycan array binding signal (z-score),[35],-0.203
same,glycan array binding signal (z-score),[36],-0.185
